Lines with a small IC50 respond at low doses; where the fit passes the top or lowest dose, that dose stands as a limit. AUC, from the same fit, is the share of area under the viability curve across the 256-fold dose range; the more sensitive the line, the further below 1. Any top dose called inferred is not printed in the source and was worked back from the curve model.
Compound: O=C1NC(=NCc2cccs2)S/C1=C\c1ccc2ncccc2c1 [RO-3306]
Test: Viability of human cancer cell lines after 72 h of drug (GDSC screen)
Conditions: top dose 5 µM; top dose inferred
Procedure: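 Human cancer cell lines in 384-well plates, medium with 10% serum, drug for 72 h over a 256-fold dose range (nine 2-fold or five 4-fold steps up to the top dose). Adherent lines were fixed and stained with the nucleic acid dye Syto60, suspension lines read with resazurin; signal relative to control wells, capped at 0 and 100%. One two-parameter sigmoid per drug and line, fitted in a mixed model over all curves with the slope shared within a line.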

Q: With COLO-680N (oesophagus, adherent) as the cell line, how does the AUC read?
A: 0.944

Q: What about the IC50 of the same cell line?
A: > 5 µM

Q: For COLO-684 (endometrium, suspension), which AUC is on record?
A: 0.983

Q: What about the IC50 of the same cell line?
A: > 5 µM

Q: Which AUC does the source give for COLO-783 (melanoma, adherent) here?
A: 0.953

Q: What about the IC50 of the same cell line?
A: > 5 µM

Q: Which AUC does the source give for COLO-800 (melanoma, adherent) here?
A: 0.984

Q: What about the IC50 of the same cell line?
A: > 5 µM

Q: With COLO-824 (breast, adherent) as the cell line, how does the AUC read?
A: 0.979

Q: And the IC50?
A: > 5 µM

Q: How did the AUC turn out when “COR-L23 (large cell lung carcinoma, adherent)” was run?
A: 0.885

Q: And the IC50?
A: > 5 µM

Q: What does the source list for “COR-L88 (small cell lung carcinoma, adherent)”?
A: AUC: 0.986; IC50: > 5 µM

Q: For “COR-L95 (small cell lung carcinoma, adherent)”, which AUC is on record?
A: 0.978

Q: And the IC50?
A: > 5 µM

Q: How did the AUC turn out when “COR-L279 (small cell lung carcinoma, suspension)” was run?
A: 0.99

Q: And the IC50?
A: > 5 µM

Q: What does the source list for COR-L321 (lung, suspension)?
A: AUC: 0.985; IC50: > 5 µM

Q: How did the AUC turn out when CP50-MEL-B (melanoma, adherent) was run?
A: 0.948

Q: And the IC50?
A: > 5 µM

Q: With CP66-MEL (melanoma, adherent) as the cell line, how does the AUC read?
A: 0.961

Q: And the IC50?
A: > 5 µM

Q: Which results are given for “CPC-N (small cell lung carcinoma, suspension)”?
A: AUC: 0.985; IC50: > 5 µM

Q: How did the AUC turn out when CRO-AP2 (B-cell lymphoma, suspension) was run?
A: 0.919

Q: And the IC50?
A: > 5 µM

Q: For CS1 (bone, adherent), which AUC is on record?
A: 0.845

Q: What about the IC50 of the same cell line?
A: 4.24 µM

Q: What does the source list for CTB-1 (B-cell lymphoma, suspension)?
A: AUC: 0.915; IC50: > 5 µM

Q: “CTV-1 (acute myeloid leukaemia, suspension)” was tested. Which AUC did it give?
A: 0.988

Q: And the IC50?
A: > 5 µM

Q: Which AUC does the source give for CW-2 (large intestine, adherent) here?
A: 0.972

Q: And the IC50?
A: > 5 µM

Q: Ca9-22 (head and neck, adherent) was tested. Which AUC did it give?
A: 0.96

Q: And the IC50?
A: > 5 µM

Q: How did the AUC turn out when Ca-Ski (cervix, adherent) was run?
A: 0.875

Q: What about the IC50 of the same cell line?
A: > 5 µM

Q: For CaR-1 (large intestine, adherent), which AUC is on record?
A: 0.964

Q: What about the IC50 of the same cell line?
A: > 5 µM

Q: For Calu-3 (lung adenocarcinoma, adherent), which AUC is on record?
A: 0.946

Q: And the IC50?
A: > 5 µM

Q: Calu-6 (lung adenocarcinoma, adherent) was tested. Which AUC did it give?
A: 0.978

Q: What about the IC50 of the same cell line?
A: > 5 µM

Q: Which results are given for Caov-4 (ovary, adherent)?
A: AUC: 0.934; IC50: > 5 µM

Q: With Capan-2 (pancreas, adherent) as the cell line, how does the AUC read?
A: 0.976

Q: What about the IC50 of the same cell line?
A: > 5 µM

Q: Which results are given for “ChaGo-K-1 (non-small cell lung carcinoma, adherent)”?
A: AUC: 0.939; IC50: > 5 µM

Q: Which results are given for D-247MG (glioma, adherent)?
A: AUC: 0.98; IC50: > 5 µM

Q: Which AUC does the source give for D-263MG (glioma, adherent) here?
A: 0.965

Q: What about the IC50 of the same cell line?
A: > 5 µM

Q: Which AUC does the source give for D-283MED (medulloblastoma, adherent) here?
A: 0.949

Q: And the IC50?
A: > 5 µM

Q: What does the source list for D-336MG (glioma, adherent)?
A: AUC: 0.981; IC50: > 5 µM

Q: Which AUC does the source give for D-392MG (glioma, adherent) here?
A: 0.962

Q: And the IC50?
A: > 5 µM

Q: D-423MG (glioma, adherent) was tested. Which AUC did it give?
A: 0.931

Q: What about the IC50 of the same cell line?
A: > 5 µM

Q: For D-502MG (glioma, adherent), which AUC is on record?
A: 0.912

Q: And the IC50?
A: > 5 µM

Q: Which AUC does the source give for D-542MG (glioma, adherent) here?
A: 0.938

Q: And the IC50?
A: > 5 µM

Q: Which results are given for D-566MG (glioma, adherent)?
A: AUC: 0.921; IC50: > 5 µM

Q: With DAN-G (pancreas, adherent) as the cell line, how does the AUC read?
A: 0.992

Q: What about the IC50 of the same cell line?
A: > 5 µM

Q: Which AUC does the source give for DB (B-cell lymphoma, suspension) here?
A: 0.863

Q: And the IC50?
A: > 5 µM

Q: What does the source list for DBTRG-05MG (glioma, adherent)?
A: AUC: 0.983; IC50: > 5 µM

Q: What does the source list for DEL (lymphoid neoplasm, suspension)?
A: AUC: 0.993; IC50: > 5 µM

Q: Which AUC does the source give for DG-75 (Burkitt lymphoma, suspension) here?
A: 0.951

Q: What about the IC50 of the same cell line?
A: > 5 µM

Q: How did the AUC turn out when DIFI (large intestine, adherent) was run?
A: 0.946

Q: And the IC50?
A: > 5 µM

Q: What does the source list for DJM-1 (skin, adherent)?
A: AUC: 0.988; IC50: > 5 µM

Q: For DK-MG (glioma, adherent), which AUC is on record?
A: 0.977

Q: What about the IC50 of the same cell line?
A: > 5 µM

Q: What does the source list for “DMS-79 (small cell lung carcinoma, suspension)”?
A: AUC: 0.981; IC50: > 5 µM

Q: With “DMS-114 (small cell lung carcinoma, adherent)” as the cell line, how does the AUC read?
A: 0.943

Q: And the IC50?
A: > 5 µM

Q: Which AUC does the source give for “DMS-273 (small cell lung carcinoma, adherent)” here?
A: 0.944

Q: And the IC50?
A: > 5 µM

Q: How did the AUC turn out when DND-41 (T-cell leukaemia, suspension) was run?
A: 0.99

Q: What about the IC50 of the same cell line?
A: > 5 µM

Q: For DOHH-2 (B-cell lymphoma, suspension), which AUC is on record?
A: 0.986

Q: And the IC50?
A: > 5 µM

Q: Which results are given for DOK (head and neck, adherent)?
A: AUC: 0.812; IC50: 4.6 µM

Q: Which results are given for DOV13 (ovary, adherent)?
A: AUC: 0.936; IC50: > 5 µM

Q: What does the source list for DSH1 (bladder, adherent)?
A: AUC: 0.958; IC50: > 5 µM

Q: With DU-145 (prostate, adherent) as the cell line, how does the AUC read?
A: 0.979

Q: What about the IC50 of the same cell line?
A: > 5 µM

Q: How did the AUC turn out when DU-4475 (breast, suspension) was run?
A: 0.983

Q: And the IC50?
A: > 5 µM

Q: For Daudi (Burkitt lymphoma, suspension), which AUC is on record?
A: 0.991

Q: What about the IC50 of the same cell line?
A: > 5 µM

Q: Which results are given for Detroit562 (head and neck, adherent)?
A: AUC: 0.982; IC50: > 5 µM

Q: How did the AUC turn out when DoTc2-4510 (cervix, adherent) was run?
A: 0.964

Q: And the IC50?
A: > 5 µM

Q: Which results are given for EB2 (Burkitt lymphoma, suspension)?
A: AUC: 0.99; IC50: > 5 µM

Q: For EB-3 (Burkitt lymphoma, suspension), which AUC is on record?
A: 0.98

Q: And the IC50?
A: > 5 µM

Q: With “EBC-1 (lung squamous cell carcinoma, adherent)” as the cell line, how does the AUC read?
A: 0.969

Q: What about the IC50 of the same cell line?
A: > 5 µM

Q: For EC-GI-10 (oesophagus, adherent), which AUC is on record?
A: 0.964

Q: What about the IC50 of the same cell line?
A: > 5 µM

Q: What does the source list for ECC10 (stomach, suspension)?
A: AUC: 0.982; IC50: > 5 µM

Q: What does the source list for EFM-192A (breast, adherent)?
A: AUC: 0.959; IC50: > 5 µM

Q: For EFO-21 (ovary, adherent), which AUC is on record?
A: 0.95

Q: And the IC50?
A: > 5 µM

Q: Which results are given for EFO-27 (ovary, adherent)?
A: AUC: 0.946; IC50: > 5 µM

Q: With EGI-1 (biliary tract, adherent) as the cell line, how does the AUC read?
A: 0.971

Q: And the IC50?
A: > 5 µM

Q: For EHEB (lymphoid neoplasm, suspension), which AUC is on record?
A: 0.963

Q: And the IC50?
A: > 5 µM

Q: How did the AUC turn out when EJM (lymphoid neoplasm, semi-adherent) was run?
A: 0.992

Q: And the IC50?
A: > 5 µM

Q: EKVX (lung adenocarcinoma, adherent) was tested. Which AUC did it give?
A: 0.955

Q: What about the IC50 of the same cell line?
A: > 5 µM

Q: With “EM-2 (chronic myeloid leukaemia, suspension)” as the cell line, how does the AUC read?
A: 0.978

Q: What about the IC50 of the same cell line?
A: > 5 µM

Q: With “EMC-BAC-1 (lung adenocarcinoma, adherent)” as the cell line, how does the AUC read?
A: 0.963

Q: What about the IC50 of the same cell line?
A: > 5 µM

Q: Which results are given for “EMC-BAC-2 (lung adenocarcinoma, adherent)”?
A: AUC: 0.93; IC50: > 5 µM

Q: How did the AUC turn out when EN (endometrium, adherent) was run?
A: 0.914

Q: And the IC50?
A: > 5 µM

Q: For ES1 (Ewing sarcoma, adherent), which AUC is on record?
A: 0.904

Q: And the IC50?
A: > 5 µM

Q: Which results are given for ES3 (Ewing sarcoma, adherent)?
A: AUC: 0.867; IC50: 4.9 µM

Q: What does the source list for ES4 (Ewing sarcoma, adherent)?
A: AUC: 0.97; IC50: > 5 µM

Q: What does the source list for ES5 (Ewing sarcoma, adherent)?
A: AUC: 0.957; IC50: > 5 µM

Q: What does the source list for ES6 (Ewing sarcoma, adherent)?
A: AUC: 0.936; IC50: > 5 µM

Q: How did the AUC turn out when ES7 (Ewing sarcoma, adherent) was run?
A: 0.934

Q: What about the IC50 of the same cell line?
A: > 5 µM

Q: What does the source list for ES8 (Ewing sarcoma, adherent)?
A: AUC: 0.902; IC50: > 5 µM

Q: Which AUC does the source give for ES-2 (ovary, adherent) here?
A: 0.887

Q: What about the IC50 of the same cell line?
A: 4.39 µM

Source: the supplement of paper PMC4967469
